About 14,000 (4.5%) of roughly 310,000 compounds showed an effect of 50% or more. The effect is printed as a negative number. Some of the results follow.
target: human ether-à-go-go-related gene (hERG) potassium channel (human, UniProt Q12809); test: primary screen, population patch clamp on CHO cells stably expressing hERG
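Note: peak tail current of the secondary pulse compared with the same well before compound.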

Sequence of human ether-à-go-go-related gene (hERG) potassium channel (Q12809 whole entry, looked up): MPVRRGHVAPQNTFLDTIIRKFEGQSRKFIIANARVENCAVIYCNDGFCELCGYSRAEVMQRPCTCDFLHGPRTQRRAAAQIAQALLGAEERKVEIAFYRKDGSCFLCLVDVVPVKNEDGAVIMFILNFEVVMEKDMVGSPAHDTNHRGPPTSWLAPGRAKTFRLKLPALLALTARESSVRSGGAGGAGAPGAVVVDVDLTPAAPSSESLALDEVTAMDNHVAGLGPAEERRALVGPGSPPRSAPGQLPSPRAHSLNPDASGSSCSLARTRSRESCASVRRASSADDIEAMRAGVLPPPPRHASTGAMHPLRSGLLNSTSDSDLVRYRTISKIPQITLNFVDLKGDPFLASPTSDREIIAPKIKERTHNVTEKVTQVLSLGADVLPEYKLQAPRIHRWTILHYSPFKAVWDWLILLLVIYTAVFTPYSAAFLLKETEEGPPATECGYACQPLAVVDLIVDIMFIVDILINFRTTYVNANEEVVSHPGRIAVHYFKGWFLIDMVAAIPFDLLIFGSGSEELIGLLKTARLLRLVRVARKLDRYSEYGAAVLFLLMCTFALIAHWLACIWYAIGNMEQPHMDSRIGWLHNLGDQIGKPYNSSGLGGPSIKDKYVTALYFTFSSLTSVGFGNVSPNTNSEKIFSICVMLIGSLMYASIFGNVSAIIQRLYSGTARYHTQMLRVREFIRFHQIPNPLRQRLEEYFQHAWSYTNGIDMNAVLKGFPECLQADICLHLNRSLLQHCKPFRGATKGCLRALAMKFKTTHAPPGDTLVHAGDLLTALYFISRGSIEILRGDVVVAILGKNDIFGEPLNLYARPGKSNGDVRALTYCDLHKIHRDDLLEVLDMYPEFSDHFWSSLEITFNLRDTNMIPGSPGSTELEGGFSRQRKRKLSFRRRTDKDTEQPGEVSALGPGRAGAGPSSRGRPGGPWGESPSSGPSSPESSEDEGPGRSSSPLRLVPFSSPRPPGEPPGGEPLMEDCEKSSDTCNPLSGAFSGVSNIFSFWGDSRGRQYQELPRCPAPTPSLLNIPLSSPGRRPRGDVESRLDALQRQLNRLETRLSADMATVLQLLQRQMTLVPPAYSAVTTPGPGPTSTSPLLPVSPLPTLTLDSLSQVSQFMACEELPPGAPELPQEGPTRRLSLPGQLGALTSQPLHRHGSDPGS

Compound	hERG current change (%, negative = inhibition) at 10uM
CCc1ccc(NC(=O)c2cc(-c3ccc(F)cc3)on2)cc1	19.1%
O=c1cc(O)c2sc3nc(C(F)(F)F)c4c(c3c2[nH]1)CCCCC4	1.82%
CSc1ncc(Cl)c(C(=O)Nc2cccnc2)n1	18.3%
COC(=O)C1=C(c2c(C)noc2C)C[C@@H]2CC[C@H]1N2C(=O)NCc1ccc(C(F)(F)F)cc1	-26.5%
O=C(O)Cn1cc(/C=c2/sc3nc4ccccc4n3c2=O)c2ccccc21	18.1%
Cc1c(CC(=O)N[C@@H](C)C(=O)O)c(=O)oc2c(C)c3occ(-c4ccccc4)c3cc12	11.8%
Br.O=C(Cn1c(NCCCO)nc2ccccc21)c1ccc(Cl)cc1	-21%
CCCOc1ccc(/C=C/C(=O)N2CCOCC2)cc1	-1.67%
C=CCNC(=O)CN(c1ccc(F)c(Cl)c1)S(C)(=O)=O	12.5%
CC(Oc1ccc(-c2ccccc2)c(F)c1)c1ccn(S(=O)(=O)c2ccc(Cl)cc2)n1 (stereo not shown)	2.34%
COc1ccc(CNC(=O)c2ccc(CS(=O)Cc3cccc(Cl)c3)o2)cc1 (stereo not shown)	-37.5%
CCOc1ccccc1/C=C/c1onc(C)c1S(=O)(=O)N1CCC(C(=O)N(CC)CC)CC1	-3.33%
CCOc1ccc(NC(=O)CN(C)C(=O)c2c(-c3c(F)cccc3Cl)noc2C)cc1OCC	-3.83%
CC(=O)c1ccc([N+](=O)[O-])c(CS(=O)(=O)c2ccc(Cl)cc2)c1	9.38%
O=C(c1ccccc1F)N1CCCC(C(=O)N2CCN(c3ccccc3)CC2)C1 (stereo not shown)	-2.72%
CCOc1ccc(-n2c(=O)c3c(C)c(C(=O)N(C)C)sc3n(CC(=O)Nc3ccccc3F)c2=O)cc1	9.73%
O=C1CSC(c2cccc(F)c2)N1c1c(F)cccc1F (stereo not shown)	-3.43%
CCOC(=O)c1cnc2c(ccc3ccccc32)c1N	18.8%
CCC(C)C(=O)Nc1cc(C(=O)OC)ccc1C(=O)OC (stereo not shown)	-25.5%
CC(=O)Cn1cnc2sc(-c3ccccc3)cc2c1=O	-13.2%
O=c1cc(-c2ccccc2)cc(-c2ccccc2)n1CCCO	-31.9%
CCOC(=O)C(CC)Sc1nnc2cc(C)c3ccccc3n12 (stereo not shown)	-38%

Compound	hERG current change (%, negative = inhibition) at 10uM
CC(=O)Nc1ccc(S(=O)(=O)c2ccc(N)cc2)cc1	-4%
Cc1ccc(CN2CCN(Cc3cccn3-c3ccccn3)CC2CCO)o1 (stereo not shown)	-66.1%
CCN(CC(=O)NC1CCS(=O)(=O)C1)S(=O)(=O)c1ccc(C)cc1C (stereo not shown)	12.5%
COc1ccc(C(=O)/C=C/c2ccc(OCc3ccccc3)cc2)cc1CSCC(=O)O	0.138%
Cn1c(NNC(=O)C(c2ccccc2)c2ccccc2)cc(=O)n(C)c1=O	26.9%
CC(C)OC(=O)c1nn2c(C(F)(F)F)cc(-c3ccco3)nc2c1Cl	17.6%
COc1ccc(CN(C)S(=O)(=O)c2nnc(NC(=O)c3cccc(F)c3)s2)cc1	13.5%
Cc1ccc(CS(=O)(=O)Cc2ccc(C(=O)NCCCN3CC(C)CC(C)C3)o2)cc1 (stereo not shown)	-60.2%
CC1CCN(C(=O)CSc2nnc(CNc3ccc(F)cc3)n2Cc2ccco2)CC1	-40.6%
CC(=O)NC12CC3CC(C1)CC(C(=O)OCC(=O)c1ccc4c(c1)OCCO4)(C3)C2	-0.5%
O=C(CCCC(=O)N/N=C\c1ccccn1)N/N=C\c1ccccn1	2.44%
CCOc1ccc(N=C(NC#N)SCC)cc1	-7.27%
COc1cc(C2NC(=O)CCC2[N+](=O)[O-])c(OC)cc1Br (stereo not shown)	31.7%
CC(=O)N1CCN(Cc2nc(-c3cccc(Cl)c3)no2)CC1	41.9%
CSc1ncccc1C(=O)OCC(=O)NCc1ccccc1	-19.6%
CC1CCC(C(C)C)C(OCC[N+](C)(C)C)C1 (stereo not shown)	4.82%
Cc1ccc(-c2oc3ncnc(N)c3c2-c2ccc(C)cc2)cc1	-20.6%
Cc1nc(SCC(=O)NCC2CCCO2)[nH]c(=O)c1C (stereo not shown)	10.3%
CCn1ccc(C(=O)Nc2cccc(Cl)c2)n1	32.4%
O=c1c(-c2ccc(F)cc2)[n+]([O-])c2ccccc2n1OCc1ccccn1	2.08%
CC1CCc2cc(F)ccc2N1C(=O)CSc1nnc2c3ccccc3n(C)c2n1 (stereo not shown)	11%

From publication PMC4336329 (PLoS ONE, 2015)
